# According to PubChem BioAssay AID504332 (National Center for Advancing Translational Sciences (NCATS), 2011):
# Out of some 350,000 compounds screened, about 31,000 (8.9%) were called active. The shares of active, inactive and inconclusive entries below differ from those in the screen. Calls come from the whole dose curve; as a rule, active = well fitted inhibition curve with a large enough effect; inconclusive = small, poorly fitted or top-dose-only effect; inactive = no such curve, though single readings can be large or run the other way. Potencies beside an inconclusive call are fits to weak or partial responses and may not hold up.
# Target: Histone-lysine N-methyltransferase EHMT2 (Homo sapiens) (UniProt Q96KQ7)
# Assay: qHTS Assay for Inhibitors of Histone Lysine Methyltransferase G9a; note: nearly all actives have a fitted effect of over 75% in size
# Conditions: G9a H3K9 monomethylation, AlphaScreen, 2 h; activity, negative = inhibition: at 59 µM (top of the series) unless noted
# Procedure, shortened: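 Compounds were preincubated with 20 nM G9a for 15 min, after which biotinylated H3K9 peptide (500 nM) and SAM (20 uM) started a 2 h room-temperature reaction. Monomethylated product was quantified by antibody-based AlphaScreen chemiluminescence.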
# % is set by controls: 0 for no effect and ±100 for the full control effect; potency is the fitted concentration of half-maximal effect; tags give direction and shape of the fitted curve.
# Chain of UniProt Q96KQ7 (Q96KQ7 whole entry, looked up): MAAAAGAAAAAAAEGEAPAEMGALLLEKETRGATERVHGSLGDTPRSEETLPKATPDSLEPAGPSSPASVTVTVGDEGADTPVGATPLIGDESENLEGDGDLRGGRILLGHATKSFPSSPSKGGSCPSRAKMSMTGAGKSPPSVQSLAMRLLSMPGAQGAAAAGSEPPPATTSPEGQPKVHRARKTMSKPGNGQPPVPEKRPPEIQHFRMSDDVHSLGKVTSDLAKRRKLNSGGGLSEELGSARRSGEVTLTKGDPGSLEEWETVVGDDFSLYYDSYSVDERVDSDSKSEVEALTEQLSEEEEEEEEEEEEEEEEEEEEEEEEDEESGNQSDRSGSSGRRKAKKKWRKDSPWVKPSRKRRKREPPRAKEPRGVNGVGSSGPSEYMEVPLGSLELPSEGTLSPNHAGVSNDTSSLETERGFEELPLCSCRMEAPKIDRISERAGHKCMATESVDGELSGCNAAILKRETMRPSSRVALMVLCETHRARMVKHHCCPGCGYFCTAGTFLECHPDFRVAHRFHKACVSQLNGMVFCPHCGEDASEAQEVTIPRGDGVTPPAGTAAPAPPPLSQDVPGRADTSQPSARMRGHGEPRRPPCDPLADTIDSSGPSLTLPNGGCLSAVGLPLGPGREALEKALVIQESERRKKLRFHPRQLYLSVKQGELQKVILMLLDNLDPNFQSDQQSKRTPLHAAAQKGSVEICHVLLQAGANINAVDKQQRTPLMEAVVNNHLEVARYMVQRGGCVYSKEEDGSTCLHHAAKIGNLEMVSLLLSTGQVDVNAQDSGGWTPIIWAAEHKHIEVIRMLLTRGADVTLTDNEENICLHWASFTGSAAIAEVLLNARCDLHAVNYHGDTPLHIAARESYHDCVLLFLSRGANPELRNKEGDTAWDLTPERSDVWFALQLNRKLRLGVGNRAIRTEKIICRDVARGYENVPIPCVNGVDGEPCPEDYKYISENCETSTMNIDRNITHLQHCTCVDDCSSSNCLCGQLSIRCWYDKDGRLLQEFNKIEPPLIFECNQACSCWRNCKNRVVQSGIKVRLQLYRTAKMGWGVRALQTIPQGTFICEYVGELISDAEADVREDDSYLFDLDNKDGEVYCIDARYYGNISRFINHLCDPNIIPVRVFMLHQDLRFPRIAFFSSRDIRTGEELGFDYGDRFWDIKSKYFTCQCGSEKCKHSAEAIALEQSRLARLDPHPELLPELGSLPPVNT
SMILES,Potency,"activity, negative = inhibition"
O=C(NCCN1CCCC1)c1ccc(Cn2c(=S)[nH]c3cc4c(cc3c2=O)OCO4)cc1,"inconclusive: 35.5 µM [inhibitor, full curve, poor fit]",–
Cc1ccc(-c2ccc(CCC(=O)O)n2NC(=O)c2cccs2)cc1,–,inconclusive: -59.5% [inhibitor]
C/C(=N\NC(=O)c1ccc(NS(=O)(=O)c2cccs2)cc1)c1ccc(Cl)cc1,"inconclusive: 79.4 µM [inhibitor, single point]",–
Clc1ccc(OCc2nnc3n2N=C(c2ccc4c(c2)OCCO4)CS3)c(Cl)c1,"inconclusive: 1.58 µM [inhibitor, partial curve, poor fit]",–
COc1ccc(-n2nc3c(c2NC(=O)COc2ccccc2)CS(=O)(=O)C3)cc1,inactive,–
CCCC(NCC(=O)Nc1ccccc1C(=O)NC1CC1)c1ccccc1 (stereo not given),inactive,–
CC(=O)N1CCCc2cc(S(=O)(=O)N3CCCC(C(=O)Nc4ccc(C)cc4C)C3)ccc21 (stereo not given),inactive,–
CC1(C)Cc2cccc(OCC(=O)NC3CC3)c2O1,"inconclusive: 22.4 µM [inhibitor, single point]",–
O=C(O)CCSc1ccccn1,active: 14.1 µM,–
CC(C)CN1C(=O)c2ccc(C(=O)Nc3ccc(O)cc3C(=O)O)cc2C1=O,"inconclusive: 89.1 µM [inhibitor, single point]",–
O=C(NC1CCCC1)c1ccc([N+](=O)[O-])s1,inactive,–
COc1ccc(NC(=O)CCCN2C(=O)COc3ccc(C)cc32)cc1OC,inactive,–
CC(=O)c1c(C)[nH]c(C(=O)NC2CCCCC2)c1C,"inconclusive: 20 µM [inhibitor, partial curve, poor fit]",–
CC(C)c1ccc(S(=O)(=O)N2CCN(CC(=O)c3ccc(O)c(O)c3)CC2)cc1,active: 8.91 µM,–
Cc1cc(NC(=O)CSc2nc(C)c(C)c(=O)[nH]2)no1,"inconclusive: 89.1 µM [inhibitor, single point]",–
CCOC(=O)c1ccc(NC(=O)c2nn(C)c3c2COc2ccccc2-3)cc1,active: 14.1 µM,–
CCN(CC)C(=O)C1CCCN(Cc2ccc3ccccc3c2)C1 (stereo not given),"inconclusive: 89.1 µM [inhibitor, single point]",–
COc1ccc(C(=O)Nc2ccc(NC(=O)Cc3ccccc3)cn2)cc1,active: 11.2 µM,–
Cc1ccc(-n2c(C)cc(/C=C3\NC(=O)NC3=O)c2C)c(C)c1,"inconclusive: 79.4 µM [inhibitor, partial curve, poor fit]",–
COc1ccc(C2=NOC(C(=O)Nc3ccc4c(c3)OCCO4)C2)cc1OC (stereo not given),"inconclusive: 89.1 µM [inhibitor, single point]",–
CCCn1c(N)c(N(CCOC)C(=O)c2cc(C)cc(C)c2)c(=O)[nH]c1=O,"inconclusive: 63.1 µM [inhibitor, partial curve, poor fit]",–
COc1ccccc1NC(=O)O/N=C(\N)c1ccccc1,"inconclusive: 79.4 µM [inhibitor, single point]",–
COc1ccc(Cl)cc1N1C(=O)CN(Cc2cc(OC)c(OC)c(OC)c2)C1=S,active: 35.5 µM,–

SMILES,Potency,"activity, negative = inhibition"
CNC(=O)C1=C(C)Nc2nc3ccccc3n2C1c1ccc(F)cc1 (stereo not given),"inconclusive: 79.4 µM [inhibitor, partial curve, poor fit]",–
CC(C)(C)OC(=O)N1CCC(c2c(C(=O)N3CCN(C(=O)c4ccco4)CC3)cnn2-c2ccccc2Cl)CC1,"inconclusive: 31.6 µM [inhibitor, partial curve, poor fit]",–
COc1ccc(NC(=O)CSc2ncnc3[nH]ncc23)cc1,inactive,–
Cc1ccc(C(=O)NCCCNC(=O)c2ccccc2F)cn1,inactive,–
CN1C(=S)SC(C)(C)C1(C)NO (stereo not given),"inconclusive: 56.2 µM [inhibitor, partial curve, poor fit]",–
O=C(CN1CCN(CC(=O)Nc2cccc(F)c2)CC1)Nc1ccc(-c2ccccc2)cc1,"inconclusive: 79.4 µM [inhibitor, single point]",–
CS(=O)(=O)N1CCC(Oc2ccccc2C(=O)N2CCC[C@H]2CO)CC1,inactive,–
O=C(CNc1ccc(Br)cc1)NC(=O)NC1CCCCC1,"inconclusive: 79.4 µM [inhibitor, partial curve, poor fit]",–
CCN(CC(=O)Nc1c(F)cccc1F)C(=O)CCN1C(=O)C2CC=CCC2C1=O (stereo not given),–,inactive: 4.3% [at 0.501 µM]
CSc1ccc(Cl)c(C(=O)OCC(=O)NCc2ccco2)c1,"inconclusive: 5.62 µM [inhibitor, partial curve, poor fit]",–
Oc1c(Cl)cccc1C=Nc1cc(C(F)(F)F)ccc1N1CCCC1,"inconclusive: 5.62 µM [inhibitor, single point]",–
O=C(CN1CCN(S(=O)(=O)c2ccccc2)CC1)Nc1ccnn1C1CCCC1,–,inactive: 0.318% [at 2.33 µM]
CCC(=O)Nc1ccc(NC(=O)Cc2ccccc2)cn1,active: 56.2 µM,–
C[C@@H]1CN(Cc2nc(Cc3ccccc3F)no2)C[C@H](C)O1,"inconclusive: 39.8 µM [inhibitor, partial curve, poor fit]",–
O=C(NCc1ccco1)c1cc2c(s1)CSC2,–,inconclusive: -96.8% [inhibitor]
COc1ccc(CN(C)C(=O)c2ccc(NS(=O)(=O)c3ccccc3)cc2)c(OC)c1,"inconclusive: 79.4 µM [inhibitor, single point]",–
Cc1ccccc1C(=O)c1cccn1CC(=O)NCc1cccc(Cl)c1,inactive,–
CCOC(=O)c1ccc(NC(=S)NNC(=O)COC)cc1,"inconclusive: 3.98 µM [inhibitor, full curve, poor fit]",–
C/C(=N\Nc1ccc(Cl)c(Cl)c1)c1ccc(-n2ccnc2)cc1,active: 11.2 µM,–
COc1ccc(CCN2C(=O)CN(C3CCC(C)CC3)C(=O)C2c2ccc(OC(C)C)c(OC)c2)cc1OC (stereo not given),inactive,–
CCCOc1ccc(C(O)CCNC(CC(=O)O)c2ccccc2)cc1 (stereo not given),"inconclusive: 0.141 µM [inhibitor, full curve, poor fit]",–
Cc1ccc(C)c(OCc2nnc(SCC(=O)NC(=O)NCc3ccco3)o2)c1,inactive,–
